In PubChem BioAssay AID488969 (Vanderbilt High Throughput Screening Facility, 2010):
Whole data set: some 110,000 compounds, median “z-score” near -0.1, cut for the highest 2% near 2. The list shows a part of the results. The source made the active and inactive calls.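 The calls were made as follows: active = z-score in the third read window above 3 or below -3; inactive = the rest.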

biological target: Metabotropic glutamate receptor 8 (Rattus norvegicus) (UniProt P70579); assay: rat mGluR8 modulators via GIRK flux, primary screen, cell-based, thallium flux, HTS (AID 488969); settings: HEK293 rat mGluR8, GIRK (G protein-gated inwardly rectifying potassium channel) thallium flux, FluoZin2; at 10 µM; stronger effect = higher value; submaximal glutamate (EC20) added with thallium
Sequence of UniProt P70579 (P70579 whole entry, looked up): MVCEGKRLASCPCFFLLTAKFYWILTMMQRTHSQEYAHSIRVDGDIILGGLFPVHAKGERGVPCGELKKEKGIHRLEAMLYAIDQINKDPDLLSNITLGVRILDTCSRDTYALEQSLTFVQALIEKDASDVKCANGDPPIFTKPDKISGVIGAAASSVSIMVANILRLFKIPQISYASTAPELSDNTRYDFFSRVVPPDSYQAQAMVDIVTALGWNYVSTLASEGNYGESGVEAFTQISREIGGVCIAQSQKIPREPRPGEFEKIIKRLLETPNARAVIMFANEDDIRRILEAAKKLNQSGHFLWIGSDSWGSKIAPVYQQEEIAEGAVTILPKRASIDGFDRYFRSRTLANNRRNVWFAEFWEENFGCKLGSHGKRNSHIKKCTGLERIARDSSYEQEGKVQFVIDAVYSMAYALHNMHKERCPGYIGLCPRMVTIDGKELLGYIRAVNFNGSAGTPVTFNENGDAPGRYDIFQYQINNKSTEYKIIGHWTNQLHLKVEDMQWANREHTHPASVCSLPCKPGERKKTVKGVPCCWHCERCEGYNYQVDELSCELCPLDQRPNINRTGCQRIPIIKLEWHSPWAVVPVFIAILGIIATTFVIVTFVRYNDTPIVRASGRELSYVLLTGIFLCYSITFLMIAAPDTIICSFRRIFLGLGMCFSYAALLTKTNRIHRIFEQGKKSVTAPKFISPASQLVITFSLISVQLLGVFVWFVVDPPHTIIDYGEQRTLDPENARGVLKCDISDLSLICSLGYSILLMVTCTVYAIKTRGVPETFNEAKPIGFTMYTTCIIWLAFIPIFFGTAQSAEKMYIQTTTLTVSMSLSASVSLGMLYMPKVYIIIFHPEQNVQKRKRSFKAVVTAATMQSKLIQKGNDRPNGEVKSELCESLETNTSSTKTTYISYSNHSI

| SMILES | z-score |
| --- | --- |
| O=C(O)c1cccc(-c2nc3ccccc3[nH]2)c1 | -0.16 |
| Fc1ccccc1COc1ccc(Br)cc1CNCc1ccncc1 | -0.177 |
| CC(C)(C)Cc1nc2ccccc2n1CCc1ccccc1 | -0.203 |
| CCCCCCCn1ccc(=N)cc1 | -0.268 |
| Cc1cc(C)n(-c2ccc(N3CCOCC3)nn2)n1 | 0.137 |
| O=C(CN1CCN(c2ccccn2)CC1)Nc1ccc(Cl)c(C(F)(F)F)c1 | 1.94 |
| Cc1ccc(NC(=O)c2cc(S(=O)(=O)N3CCC4(CC3)OCCO4)ccc2F)cc1 | -0.0634 |
| CC(=O)Nc1nc2ccccc2n1Cc1ccccc1 | 0.74 |
| CCOC(=O)Cc1csc(NC(=S)NC(=O)c2cccc([N+](=O)[O-])c2)n1 | 0.802 |
| CCOC(=O)c1ccc(NC(=O)CN(C)S(=O)(=O)c2ccc(OC)cc2)cc1 | -0.199 |
| COc1ccc(CCNC(=O)c2ccc(NS(=O)(=O)c3c(C)noc3C)cc2)cc1OC | 0.22 |
| COC(C(=O)Nc1ccc(S(=O)(=O)Nc2ccc(F)cc2)cc1)c1ccccc1 (stereo unspecified) | -0.241 |
| CNS(=O)(=O)c1cccc(C(=O)OCC(=O)NCc2ccccc2)c1 | -0.447 |
| COc1nc(-c2ccccc2)ccc1-c1noc(-c2ccccc2)n1 | 0.293 |
| O=C(Oc1ccccc1)c1ccc(COC(=O)c2cnccn2)cc1 | 0.0495 |
| Cc1nc2c(=O)n(C)c(=O)n(C)c2nc1Cl | 1.3 |
| Cc1cccc(C)c1OCc1nnc2c3cnn(C)c3ncn12 | -0.22 |
| CCOC(=O)c1[nH]c2ccc(F)cc2c1N=C(C)N(CC)CC | -0.0884 |
| O=C(CN1CCOCC1)NCCNC(=O)CN1CCOCC1 | 0.404 |
| Cc1cc(NC(=O)CCCC(=O)N(c2ccccc2)C(C(=O)NC2CCCCC2)c2cccs2)no1 (stereo unspecified) | 0.689 |
| CCCn1c(C)cc(C(=O)COc2ccc(C)nc2[N+](=O)[O-])c1C | -0.135 |
| CCOc1ccc(C2c3c(oc4cc(C)c(C)cc4c3=O)C(=O)N2CCCN(C)C)cc1OC (stereo unspecified) | 0.756 |
| Cc1cc(C)n(-c2nc(NC(C)C)nc(NC(C)C)n2)n1 | -1.17 |
| Cc1cccc(C(=O)Nc2ccc(CC(=O)O)cc2)c1 | -0.175 |

| SMILES | z-score |
| --- | --- |
| CC(=O)Nc1nc(COc2ccccc2)cs1 | -0.159 |
| O=S(=O)(CC12C3C4C5C1C2C(Br)(C43)C51OCCO1)c1ccccc1 (stereo unspecified) | -0.0862 |
| CCOc1ccc(C2c3cc(OC)c(OC)cc3CC(=O)N2c2ccc(OC)cc2)cc1 (stereo unspecified) | -0.282 |
| COc1ccc(-c2cnnc(N/N=C/C(C)=C/c3ccccc3)n2)cc1 | 0.254 |
| CC1CCCC(C)N1CC(O)COCC1COc2ccccc2O1 (stereo unspecified) | -0.0598 |
| COc1ccc(C(C)=O)cc1CSc1nnc(Nc2ccccc2)s1 | -0.404 |
| COc1ccc(OC)c(C2CC(=O)N3CN(c4cccc(Cl)c4)CSC3=C2C#N)c1 (stereo unspecified) | 0.205 |
| CCC1(C)CC(c2csc(N)n2)CCO1 (stereo unspecified) | 2.98 |
| COc1ccc(/C=C/C(=O)c2ccccc2O)cc1CN1CCOCC1 | 0.0524 |
| CCCCC(CC)Cn1c(N)c(C#N)c2nc3ccccc3nc21 (stereo unspecified) | -0.274 |
| CS(=O)(=O)N(CC(N)=O)c1ccc2c(c1)OCO2 | -0.00195 |
| COc1ccc(C(CC(=O)O)NS(=O)(=O)c2ccc(C)cc2)cc1 (stereo unspecified) | 0.145 |
| CC1SC(=NC(=O)C(C)N2C(=O)c3ccccc3C2=O)NC1=O (stereo unspecified) | 0.0917 |
| CC(C)=C(NC(=O)c1ccccc1)C(=O)N/N=C(\C)c1ccccc1O | -0.0548 |
| COc1ccc(-n2ncc3c(=O)n(CC(=O)OCc4ccccc4)cnc32)cc1 | -0.323 |
| COc1cc(NC(=O)COC(=O)CNC(=O)c2ccc(Cl)cc2)c(C)cc1[N+](=O)[O-] | -0.644 |
| COc1cccc(O[C@@H]2O[C@@H]3COC(C)(C)O[C@H]3[C@H](O)[C@H]2NC(C)=O)c1 | -0.144 |
| CCOc1ccc(C(=O)CCC(=O)O)cc1 | -0.338 |
| CC(=O)Nc1ccccc1OCC(=O)NC(C)c1ccc(F)cc1 (stereo unspecified) | -0.0422 |
| CSc1nnc(-c2ccc(F)cc2)o1 | 0.446 |
| CCOC(=O)/C(=C/Nc1ccccc1)[N+](=O)[O-] | -0.385 |
| CC(C)(C)CC(C)(C)NCC(O)COc1c(F)cc(Br)cc1F (stereo unspecified) | active: 3.25 |
| COc1ccc(OC)c(NC(=O)CSc2nnnn2-c2ccc3c(c2)OCO3)c1 | -0.256 |
| O=C(Nc1nc(-c2cccs2)c(-c2cccs2)s1)C1(c2ccccc2)CC1 | -0.247 |

| SMILES | z-score |
| --- | --- |
| O=C(COC(=O)c1ccc(CNS(=O)(=O)c2ccc(F)c(Cl)c2)cc1)NCC1CCCCC1 | -0.324 |
| O=C(OCCNC(=O)c1ccc2ccccc2n1)c1cccnc1 | 0.0581 |
| Cc1ccc(S(=O)(=O)N2CCN(Cc3ccccc3)CC2)c(C)c1N(C)S(=O)(=O)c1ccccc1 | -0.0147 |
| O=S(=O)(c1ccc2ccccc2c1)N1CCC(c2nc(-c3ccncc3)no2)CC1 | 0.107 |
| CCCCNC(=O)CSc1nc2ccccc2n1S(=O)(=O)c1ccc(Cl)cc1 | -0.0179 |
| O=C(COc1ccc(Br)cc1)N1CCCCCC1 | -0.191 |
| O=C(N/N=C/c1ccc2c(c1)OCO2)c1cc(-c2ccccc2)nc2ccccc12 | 0.6 |
| COc1ccc(-c2[nH]c(-c3ccc(C)cc3)nc2SCC(=O)Nc2nccs2)cc1 | -0.557 |
| O=C(N/N=C/c1ccc(COc2ccc(Br)cc2)o1)c1ccco1 | -0.299 |
| CCCOc1ccc(N2C(=O)CC(N(CCc3ccc(OC)cc3)C(=O)c3cccc(F)c3)C2=O)cc1 (stereo unspecified) | -0.214 |
| CNS(=O)(=O)c1cccc(C(=O)Nc2cccnc2)c1 | -0.0126 |
| OC(COCC1CC=CCC1)Cn1cnc2ccccc21 (stereo unspecified) | 0.36 |
| NC(=O)c1ccccc1NC(=O)CN1CCOCC1 | 0.829 |
| CCC(=O)Nc1nc2ccc(S(C)(=O)=O)cc2s1 | 0.244 |
| Cc1cccc2cc(CN(Cc3ccco3)C(c3nnnn3CCc3ccccc3)C(C)C)c(=O)[nH]c12 (stereo unspecified) | -0.514 |
| CCc1nnc(NC(=O)CSc2nnc(-c3ccncc3)n2C)s1 | -1.78 |
| CCc1cccc(C)c1NC(=O)CN(C)Cc1cccc(F)c1 | -0.571 |
| Cc1ccc(S(=O)(=O)N2CCC(C(=O)NC3CCCCCC3)CC2)cc1 | -0.0732 |
| CCN(Cc1ccccc1)Cc1cccc([N+](=O)[O-])c1 | -0.393 |
| O=C(CCCSc1nc2ccccc2[nH]1)NCc1ccccc1 | -0.307 |
| CCc1ccc(N(CC(=O)NC2CCCC2)S(=O)(=O)c2c(C)noc2C)cc1 | -0.269 |
| CN1C(=O)c2cccc(NC(=O)Cc3ccccc3)c2C1=O | -0.224 |
| CC(C)CNC(=S)NNC(=O)c1ccco1 | -0.0344 |
